Data reported in paper PMC4336329 (PLoS ONE, 2015).
Screen size: about 310,000 compounds; about 2,200 (0.71%) showed an effect of 50% or more. The effect is printed as a negative number. Some of the results follow.

Molecular target: human ether-à-go-go-related gene (hERG) potassium channel (human, UniProt Q12809)
Test: primary screen, population patch clamp on CHO cells stably expressing hERG

Sequence of human ether-à-go-go-related gene (hERG) potassium channel (Q12809 whole entry, looked up): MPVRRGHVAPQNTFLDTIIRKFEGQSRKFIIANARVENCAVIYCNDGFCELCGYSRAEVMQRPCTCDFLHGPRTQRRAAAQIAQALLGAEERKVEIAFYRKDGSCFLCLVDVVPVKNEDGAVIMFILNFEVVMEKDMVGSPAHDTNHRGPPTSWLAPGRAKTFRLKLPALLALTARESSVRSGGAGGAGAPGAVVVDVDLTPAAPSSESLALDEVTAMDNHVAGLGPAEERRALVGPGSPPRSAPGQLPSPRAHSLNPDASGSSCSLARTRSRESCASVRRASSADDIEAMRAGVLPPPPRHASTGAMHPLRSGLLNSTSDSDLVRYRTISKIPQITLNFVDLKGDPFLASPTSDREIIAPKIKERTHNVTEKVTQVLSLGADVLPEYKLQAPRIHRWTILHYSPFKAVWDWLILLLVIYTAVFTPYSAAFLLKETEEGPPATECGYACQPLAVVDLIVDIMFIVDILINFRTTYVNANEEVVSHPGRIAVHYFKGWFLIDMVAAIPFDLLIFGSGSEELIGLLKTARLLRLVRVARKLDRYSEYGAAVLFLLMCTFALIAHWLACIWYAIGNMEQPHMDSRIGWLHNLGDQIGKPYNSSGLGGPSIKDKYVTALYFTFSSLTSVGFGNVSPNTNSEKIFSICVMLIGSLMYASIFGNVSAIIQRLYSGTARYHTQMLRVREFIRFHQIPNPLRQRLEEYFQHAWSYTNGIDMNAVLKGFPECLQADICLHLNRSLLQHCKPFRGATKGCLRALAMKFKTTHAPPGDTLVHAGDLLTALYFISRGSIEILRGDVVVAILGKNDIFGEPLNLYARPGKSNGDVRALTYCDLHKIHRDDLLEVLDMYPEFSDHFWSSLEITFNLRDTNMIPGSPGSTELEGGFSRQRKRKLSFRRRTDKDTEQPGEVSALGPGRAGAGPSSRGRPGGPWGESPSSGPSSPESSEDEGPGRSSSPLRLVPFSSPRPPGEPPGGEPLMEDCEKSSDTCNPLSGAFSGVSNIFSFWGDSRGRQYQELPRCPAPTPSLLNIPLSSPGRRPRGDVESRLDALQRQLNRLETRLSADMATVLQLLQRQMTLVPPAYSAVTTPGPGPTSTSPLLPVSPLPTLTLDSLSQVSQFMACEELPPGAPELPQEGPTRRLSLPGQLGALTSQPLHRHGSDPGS

SMILES | hERG current change (%, negative = inhibition) at 1uM [%]
CCC(=O)c1ccc(OCCn2cncn2)cc1 | -2.25
CSc1ccc(CCNC(=O)CN2C(=O)CCSc3ccccc32)cc1 | 1.74
Cc1ccc(C(=O)N2CCC(C)CC2)cc1S(=O)(=O)N1CCCCC1 | 10.4
Nc1c(C(=O)Nc2ccc(Cl)cc2)sc2nc(N3CCOCC3)c3c(c12)CCCC3 | 13.6
Cc1cc(C)c(/C=N/n2c(C)cc(C)c(C#N)c2=O)c(C)c1 | 5.19
Cc1cccc(N2CCN(c3nc(C)cc(C)c3C#N)CC2C)c1.Cl (stereo not shown) | 11.4
O=C(Nc1ccc(F)cc1)Nc1nnc(-c2ccco2)s1 | 18.1
CCOc1ccc(NC(=O)CSc2nc3ccccc3c(=O)n2CCCC(=O)N2CCCC2)cc1 | -13.1
CC1=C(C(=O)OCC2CCCO2)C(c2coc3ccc(Cl)cc3c2=O)C2=C(CCCC2=O)N1 (stereo not shown) | 6.76
CCCCOc1ccc(N2C(=O)CC(N(O)c3ccccc3)C2=O)cc1 (stereo not shown) | 12
CCOC(=O)C1(CCOC)CCN(Cc2nc(-c3cccs3)oc2C)CC1 | -4.18
O=C(c1cc(-c2ccccc2Cl)on1)N1CCN(C(=O)c2ccco2)CC1 | -1.67
O=C(NN1C(=O)/C(=C\c2ccc(O)c([N+](=O)[O-])c2)SC1=S)c1ccccc1Cl | 15.8
CC(=O)Nc1cc([As](=O)(O)O)ccc1O | 15.9
O=C(NC(=S)N1CCc2ccccc21)c1ccccc1Cl | 6.46
CCOc1ccc2[nH]c(C)c(CN3CCCCC3)c(=O)c2c1 | 2.6
O=C(Cc1ccc(Cl)c(Cl)c1)Nc1cccc(S(=O)(=O)N2CCOCC2)c1 | 8.57
Cc1nn(-c2ccccc2)c(C)c1NC(=O)COc1ccc(C#N)cc1 | -5.39
COc1cccc(/C=N/Nc2ncnc3c2ncn3Cc2ccccc2)c1O | 10.7
Cc1cc2nc3c(c(=O)n2[nH]1)CCCC3 | 7.48
COC(=O)c1ccc(CSc2nc3ccccc3c(=O)n2-c2ccccc2)o1 | 9.17
CCOC(=O)N1CCN(C(=O)CN(c2ccc(Oc3ccccc3)cc2)S(C)(=O)=O)CC1 | 4.21

SMILES | hERG current change (%, negative = inhibition) at 1uM [%]
CC(C)n1cnc2cc(NC(=O)c3ccco3)ccc21 | 14.9
O=C(Nc1ncccc1O)c1ccc(Cl)c(S(=O)(=O)N2CCCCC2)c1 | 5.18
CCNc1nc(NC(C)C)nc(NS(=O)(=O)c2ccc(Cl)cc2)n1 | 13
CCOc1ccc2nc(NC(=O)Nc3cccs3)sc2c1 | 13.8
Cc1ccc(NC(=O)c2cc(S(=O)(=O)N3CCCC3)cn2C)cc1C | 9.68
Fc1ccc(C(CCNCc2cccs2)c2ccco2)cc1 (stereo not shown) | -28
O=C(NCC1CCCO1)c1ccc([N+](=O)[O-])o1 (stereo not shown) | -4.31
Cc1ccc(C2C=C(c3ccc4c(c3)OCO4)Nc3ncnn32)cc1 (stereo not shown) | 6.96
COc1ccc(NC(=O)N2CCC3(CC2)OCCO3)c(OC)c1 | 4.56
Cc1c(C)c2ccc(OC(C)C(=O)N3CC[C@@]4(O)CCCC[C@H]4C3)cc2oc1=O (stereo partly shown) | 2.7
CCS(=O)(=O)N1CCCC(C(=O)NCc2cccnc2)C1 (stereo not shown) | 14.3
[O-]/[N+](=C/c1ccco1)c1ccccc1 | 10.7
NS(=O)(=O)c1ccc(CCNC(=O)CSc2nc3ccccc3c(=O)n2CCN2CCOCC2)cc1 | 19
Cc1ccc(S(=O)(=O)N2CCN(C(=O)c3cccc(F)c3)CC2)cc1 | 0.222
COc1ccc(OCC(=O)NNC(=O)c2c(-c3ccccc3Cl)noc2C)cc1 | 13.6
Cc1cc2nc(C)n(CCCNC(=O)Nc3ccc(F)cc3)c2cc1C | -4.65
CC(=O)Nc1ccc(NC(=O)CN2CCN(c3cccc(C(F)(F)F)c3)CC2)cc1 | 1.61
CC(=O)NC1C(=O)N(CC(C)C)c2ccccc21 (stereo not shown) | 8.77
COc1ccc(OCC(O)CNC(=O)Nc2ccccc2)cc1 (stereo not shown) | 2.47
O=C(Nc1nnc(SCc2cccnc2)s1)C1CC(=O)N(c2ccc(F)cc2)C1 (stereo not shown) | 10.1
CCOc1ccccc1C(=O)N/N=C/c1ccoc1 | 15.4
